Test results as given in PubChem BioAssay AID1508624 (National Center for Advancing Translational Sciences (NCATS), 2021).
Among all 48,000 compounds or so, about 120 (0.25%) were called active. About 4% were inconclusive and are not listed. Calls follow the shape of the dose curve; as a rule, active = well fitted activation curve with a large enough effect; inconclusive = small, poorly fitted or top-dose-only effect, or another doubt; inactive = no such curve, though single readings can be large or run the other way. Some of the results follow.

assay: Primary qHTS for Identification of Small Molecule Activators of Huntingtin-Antisense Promoter Activity; conditions: HEK293 HTT-AS promoter firefly luciferase reporter, 24 h; series mostly up to 57.5 µM; activity change, positive = activation: at the top concentration; also: nearly all actives have a fitted effect of over 55% in size
How it was run: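 Quantitative HTS used concentration series of up to 57.5 uM final on HEK293 luciferase reporter cells, 24 h at 37 degrees C. Readout was Dual-Glo firefly luminescence.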

Activity change, positive = activation, inactive:
CCOC(=O)c1c(S(=O)(=O)N2CCCC(C(=O)NCc3ccc(F)cc3)C2)c(C)n(CC)c1C (stereo not given) -13%, COc1ccc(CN(Cc2ccco2)C(=O)COc2ccc(Cl)cc2C)cc1 -16.9%, CC(=O)N1CCc2c(sc3c2c(=O)n(-c2cccc(Cl)c2C)c(=O)n3Cc2ccccc2C)C1 -40.8%, Cc1ccc2c(c1)cc1c(=O)n(CC(=O)N(C)c3ccccc3)nc(C)n12 -11.8%, Cc1ccc(NC(=O)CSc2nc3nc(C)c(Cc4ccccc4)c(C)n3n2)cc1 -15.6%, CC(C)CNC(=O)N1CCN(S(=O)(=O)c2ccc3c(ccn3C)c2)CC1 -10%, CCCCCCCCCCCCCCCC(=O)O 1.51%, Cc1ccc2oc3c(c(=O)c2c1)C(c1ccccc1F)N(c1ccccn1)C3=O (stereo not given) -16.5%, COc1ccc(Cn2ccnc2SCC(=O)Nc2ccc3c(c2)OCO3)cc1 6.57%, COc1ccc(-c2cc(C(F)(F)F)n3nc(C(=O)Nc4cc(C(F)(F)F)ccc4Cl)cc3n2)cc1OC 7.32% [at 11.5 µM, percent change from vehicle, -100% = no light], Cc1ccc(NC(=O)Cn2c(=O)c(C(F)(F)F)nc3ccccc32)cc1C 19.6%, Cc1ccc(C(C(=O)NC2CCCCC2)N(C)Cc2ccccc2)cc1 (stereo not given) -2.08%, CCOC(=O)c1ccccc1NC(=O)Cn1nnc2sc3c(c2c1=O)CCCC3 -9.32%, Cc1oc2c(c1C(=O)Nc1ccc(F)c(F)c1)C1=NCCN1C=N2 12.4%, CCc1cccc(CC)c1NC(=O)CCS(=O)(=O)c1ccc(Br)s1 -9.89%, CCOC(=O)c1ccccc1Nc1nc2ccc(C)cc2n2nnnc12 2.04%, Cc1cccc(C)c1NC(=O)c1nc(S(C)(=O)=O)ncc1N(Cc1ccc(C(C)(C)C)cc1)Cc1ccco1 -18.4%, Cn1cc(-c2cc3n(n2)CCC(=O)N3CCCC(=O)NCc2ccc(F)cc2)c2ccccc21 -29.4%, CCOc1ccc(NC(=O)c2oc3ccccc3c2NC(=O)C2CCCCC2)cc1 -2.38%, CC1CCN(S(=O)(=O)c2ccc3c(c2)CCN3C(=O)Nc2cccc(Br)c2)CC1 -5.44%, Cc1ccc(-c2nc3n(n2)C(c2ccccc2Cl)C=C(c2ccc(Cl)cc2)N3)cc1 (stereo not given) -12.1%, CCOC(=O)c1ccc(CN(Cc2ccc(C)cc2)S(=O)(=O)c2ccc(F)c(C(=O)Nc3ccc(C)c(F)c3)c2)cc1 3.9%, CCOCCc1nn2c(=O)cc(COC(=O)c3ccccc3NC(=O)c3ccccc3F)nc2s1 -10.9%, Cc1ccc(S(=O)(=O)NC2(C(F)(F)F)NC(=O)N(c3ccc(F)cc3)C2=O)cc1 (stereo not given) -11.4%, CCOc1ccc(C(=O)c2cn(CC(=O)Nc3ccc(OC)cc3)c3cc4c(cc3c2=O)OCO4)cc1 -13.7%, CCOC(=O)c1c(C)[nH]c(C)c1S(=O)(=O)N1CCCC(C(=O)Nc2ncccc2C)C1 (stereo not given) 7.5%, CC(C)CCn1c(=O)c2cccnc2n(CC(=O)Nc2ccccc2)c1=O -23.4%, CCS(=O)(=O)N1CC(=O)N(c2cccc(Cl)c2)C(C)(C(=O)NC2CCCCCC2)C1 (stereo not given) -12.3%, Cc1oc(-c2ccc(C(=O)NCCC(C)C)cc2)nc1CS(=O)(=O)c1ccccc1 -7.79%, N#Cc1c[nH]n2c(NC3CCCC3)c(-c3cccc(Br)c3)nc12 -10.5%, C=C[C@@H]1CN2CCC1C[C@@H]2C(O)c1ccnc2ccc(OC)cc12 (stereo not given in full) -12.1%, CN(C)c1ccc(CN(Cc2ccco2)C(=O)COc2ccc(F)cc2)cc1 -36.9%, Cc1ccc(NC(=O)N2CC3CCCN3c3ccccc32)cc1C (stereo not given) -27.4%, COc1ccccc1CCNC(=O)C(=O)NCC(c1ccco1)S(=O)(=O)c1cccs1 (stereo not given) -16%, COc1ccc(C(=O)Nc2ccc(NC(=O)c3cccs3)cc2)cc1OC -13.7%, Cc1cccc(C(=O)NCC(c2cccs2)S(=O)(=O)c2cccs2)c1 (stereo not given) -6.49%, Cc1nc2sc(C)c(C)n2c(=O)c1S(=O)(=O)N1CCN(c2ccccc2F)CC1 -12.8%, Cc1cc(C)cc(OCC(=O)Nc2nonc2-c2ccc(Br)cc2)c1 -23.9%, Cc1ccc2c(Sc3ccc(Cl)cc3)c(C(=O)NCCC(C)C)[nH]c2c1 13.6%, Cc1c(C(=O)N(Cc2ccc(N(C)C)cc2)CC2CCCO2)oc2ccccc12 (stereo not given) -9.7%, CCCSc1ncc(Cl)c(C(=O)Nc2ccc(S(=O)(=O)N3CCCC(C)C3)cc2)n1 (stereo not given) -29.8%, COc1cc(O)c2c(c1)C1OC1C[C@H](O)[C@H](O)C(=O)C=CC[C@H](C)OC2=O (stereo not given in full) -57.6%, CCc1nnc(SCc2nc(-c3ccccc3Cl)oc2C)c2cc3sc(C)cc3n12 -2.44%, O=C(Nc1nc2c(F)cccc2s1)c1ccc(S(=O)(=O)N2CCOCC2)cc1 -21.7%, COc1ccc2[nH]cc(CCNC(=O)Nc3ccccc3)c2c1 -16.2%, COc1ccc(CN(C(=O)c2ccccc2F)C2CCS(=O)(=O)C2)cc1 (stereo not given) 3.64%, CCOCCCn1c(=N)c(C(=O)NC(C)c2ccccc2)cc2c(=O)n3cc(C)ccc3nc21 (stereo not given) -7.09%, CCc1cccc(CC)c1NC(=O)CN(CC(=O)O)CC(=O)O -9.48%, Cc1ccn2c(NC(=O)c3cccc(Cl)c3)c(-c3ccccc3)nc2c1 -13%, CCCC(=O)N1CCc2cc(OC)c(OC)cc2C1COc1ccccc1OC (stereo not given) -21.4%, CCc1ccc(CNc2ncc(-c3cccc(OC)c3)n2C)cc1 -37.5%, Cc1cccc(C)c1NC(=O)Cn1c(=O)n(Cc2ccc(C(=O)NCc3ccco3)cc2)c(=O)c2sccc21 -5.2%, CCOC(=O)Cc1cc(C(=O)Nc2ccc(Br)cc2)sc1-c1ccc(C)cc1 -20.2%, COc1ccc(-c2nc3ccccc3o2)cc1NC(=O)c1cccc2c(Cl)cccc12 26.6%, COc1ccc(NC(=O)CC2C(=O)N(c3ccc(OC)cc3)C(=O)N2Cc2ccc(OC)c(OC)c2)cc1 (stereo not given) -12.7%, CCOc1ccc(N2CC(NC(=O)Cc3cccs3)CC2=O)cc1 (stereo not given) -16%, CCOc1ccc(CCNC(=O)CCn2c(=O)c3cccn3c3ccc(F)cc32)cc1OCC -7.12%, CCOc1ccc(NC(=O)CCc2c(C)nc3c4c(C)cc(C)nc4nn3c2C)cc1 5.53%, CN(Cc1ccccc1)c1ccc2cc(S(=O)(=O)N3CCCCC3)ccc2n1 -6.12%, Cc1ccc(C)c(CSc2cn(CC(=O)N3CCCC3)c3ccccc23)c1 -0.36%
